In all, about 33,000 sequences were measured (“E-score (-0.5 to 0.5)”: median about -0.035, highest 2% from about 0.34 on). This is one part of the list.

The experiment has as its target T1, Mot3 (UniProt P54785).
T1 sequence: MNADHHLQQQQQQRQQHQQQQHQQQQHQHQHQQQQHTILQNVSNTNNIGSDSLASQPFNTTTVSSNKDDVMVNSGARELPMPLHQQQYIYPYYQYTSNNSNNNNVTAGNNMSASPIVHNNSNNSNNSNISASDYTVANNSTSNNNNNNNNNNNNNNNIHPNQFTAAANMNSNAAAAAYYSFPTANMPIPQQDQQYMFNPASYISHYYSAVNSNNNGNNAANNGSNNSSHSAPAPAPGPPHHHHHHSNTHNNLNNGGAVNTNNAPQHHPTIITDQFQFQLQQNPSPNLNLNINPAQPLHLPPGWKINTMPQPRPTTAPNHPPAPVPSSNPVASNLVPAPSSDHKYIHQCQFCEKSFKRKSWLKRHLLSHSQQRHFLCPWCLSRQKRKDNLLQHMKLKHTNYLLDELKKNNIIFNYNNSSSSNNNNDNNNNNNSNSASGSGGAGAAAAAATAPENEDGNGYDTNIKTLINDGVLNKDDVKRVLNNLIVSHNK
As to the kind of experiment: PBM E-score (8-mer binding enrichment) (E-score (-0.5 to 0.5)); higher = stronger / more preferred TF binding; most listed sequences are background and not binding sites. The note with it: protein concentration: 200 nM; construct: GST-full length. The method, boiled down: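 Yeast transcription factors, full-length or as DNA-binding domains, were expressed with a GST tag using PURExpress in vitro transcription/translation. At about 100-200 nM they were applied to universal all-10-mer Agilent arrays, double-stranded by primer extension on fresh or once-stripped slides. Fluorescent anti-GST detected bound protein, and masliner normalised the scans. E-scores for ungapped eight-base words, pooled with reverse complements, came from the Universal PBM Analysis Suite.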
For the sequence ACGACTGC, the “PBM E-score” value is -0.0855.

Take GAGCCACA: the “PBM E-score” value is -0.287.

Turning to ATAGATTG, the “PBM E-score” value is -0.0655.

As to CGCCAAAG, the “PBM E-score” value is -0.208.

In the case of CGAATACC, the “PBM E-score” value was 0.112.

Turning to AGATCCAA, the “PBM E-score” value is -0.211.

For ATTGATCC, the “PBM E-score” value is -0.137.

For the sequence TAACGTTA, the “PBM E-score” value was 0.162.

Regarding TCGCGCGA, the “PBM E-score” value is -0.264.

AGAACTAG: the “PBM E-score” value was -0.164.

In the case of GGGTCGAA, the “PBM E-score” value is -0.203.

Take CGCAGAAG: the “PBM E-score” value was -0.155.

Consider ATACCGGA, for which the “PBM E-score” value is -0.101.

For the sequence AGGCCGGG, the “PBM E-score” value was -0.282.

Consider AGATCTCC, for which the “PBM E-score” value was -0.309.

CAAGTGCG: the “PBM E-score” value was -0.0614.

With ACAAGAAG, the “PBM E-score” value turned out to be 0.062.

For ATAAGAGG, the “PBM E-score” value is -0.0973.

Take GTGGCAGA: the “PBM E-score” value was -0.201.

With ATGTGCCG, the “PBM E-score” value was -0.259.

As for CATCCCGG, the “PBM E-score” value is -0.192.

ACCTGTAG: the “PBM E-score” value turned out to be 0.146.

GAACATGA: the “PBM E-score” value is 0.238.

With CCGCTTAC, the “PBM E-score” value was -0.145.

Consider CGAAATTA, for which the “PBM E-score” value was 0.106.

As for CATGCCTA, the “PBM E-score” value was 0.245.

CCCTCGCC: the “PBM E-score” value was -0.358.

In the case of TTGCCAAA, the “PBM E-score” value was -0.0722.

With AACCCTGA, the “PBM E-score” value is 0.0568.

TACAAACA: the “PBM E-score” value stood at 0.161.

On to CCGGCACC, for which the “PBM E-score” value is -0.143.

Consider CTTATGCC, for which the “PBM E-score” value is -0.039.

For CACGCGCG, the “PBM E-score” value worked out at 0.0383.

Turning to AACGCCAG, the “PBM E-score” value is -0.0303.

As for ATCGATTG, the “PBM E-score” value is 0.179.

Regarding GCAAGGGC, the “PBM E-score” value was -0.133.

As to CACTTGAC, the “PBM E-score” value was -0.0617.

Consider GACTTATC, for which the “PBM E-score” value is -0.2.

Consider AGCTACTA, for which the “PBM E-score” value was -0.0666.

For GCCCCGGC, the “PBM E-score” value is -0.332.

For the sequence CGGTCCAC, the “PBM E-score” value is -0.218.

For GGGCACGA, the “PBM E-score” value stood at 0.163.

For AAGAGCCG, the “PBM E-score” value was -0.215.

For AATCATCG, the “PBM E-score” value was -0.125.

Turning to GGGCGACA, the “PBM E-score” value was -0.194.

Consider GCCGCGAC, for which the “PBM E-score” value was -0.259.

For CATGTTAA, the “PBM E-score” value came to 0.411.

Turning to ATCCCGAG, the “PBM E-score” value is -0.305.

For ATTAGGCC, the “PBM E-score” value is -0.111.

Regarding GAGGAATA, the “PBM E-score” value stood at 0.097.

For the sequence ACTTTTTG, the “PBM E-score” value amounted to 0.13.

With GTACTACA, the “PBM E-score” value stood at 0.308.

As to ACCAGTCC, the “PBM E-score” value was -0.224.

In the case of TAGAATGA, the “PBM E-score” value was 0.0169.

In the case of AGTGGAGG, the “PBM E-score” value was -0.177.

As to ATCGGAGG, the “PBM E-score” value came to 0.0214.

For the sequence ACATGCGG, the “PBM E-score” value came to 0.175.

In the case of GCTATGCA, the “PBM E-score” value was -0.154.

In the case of ATCTACTC, the “PBM E-score” value was -0.0854.

As to CTAGAGCA, the “PBM E-score” value was -0.00487.

Consider ATTCTCAC, for which the “PBM E-score” value is -0.0526.

For the sequence GTACAGGA, the “PBM E-score” value was 0.343.

Regarding ACTGTAAT, the “PBM E-score” value came to 0.169.

For ACGCCGTG, the “PBM E-score” value amounted to 0.172.

Turning to CGGTTGAA, the “PBM E-score” value is 0.16.

Regarding AGAGACGC, the “PBM E-score” value is -0.0853.

In the case of CTCACTTC, the “PBM E-score” value is -0.318.

With GATTTGGC, the “PBM E-score” value is -0.177.

As for ATGCCCGA, the “PBM E-score” value was -0.212.

For the sequence AGCATAGA, the “PBM E-score” value was found to be 0.0052.

Regarding ACGTCACT, the “PBM E-score” value was -0.0663.

Turning to CGGCGCAA, the “PBM E-score” value was -0.0217.

On to CCACATAA, for which the “PBM E-score” value is -0.0841.

For the sequence TAATATTA, the “PBM E-score” value is 0.228.

In the case of CCTCTCGC, the “PBM E-score” value was -0.121.

ATCGCAAT: the “PBM E-score” value is -0.101.

As to AGCCACAT, the “PBM E-score” value was 0.0539.

For CGCGACAA, the “PBM E-score” value is -0.0189.

Regarding AACAGTGT, the “PBM E-score” value was 0.0697.

CACAAGCC: the “PBM E-score” value was determined as 0.0891.

Regarding CGACGATC, the “PBM E-score” value is -0.201.

In the case of CCCATTTA, the “PBM E-score” value came to 0.00011.

Regarding ATGATCAT, the “PBM E-score” value was -0.0174.

For AAAGGAGG, the “PBM E-score” value amounted to 0.0888.

With CAATAATC, the “PBM E-score” value is -6e-05.

Regarding CGAGGGCC, the “PBM E-score” value is -0.158.

As to GAAGTCTC, the “PBM E-score” value was -0.125.

As for CGGAAACA, the “PBM E-score” value was determined as 0.0963.

In the case of GATACACC, the “PBM E-score” value was -0.0218.

For the sequence AGGCCGGA, the “PBM E-score” value is -0.14.

For the sequence CATAGACG, the “PBM E-score” value was -0.014.

For the sequence ACGAACGT, the “PBM E-score” value is -0.0366.

As to GCTTAAGC, the “PBM E-score” value amounted to 0.101.

As to CTCGGATA, the “PBM E-score” value is -0.143.

As to CTTCTTTC, the “PBM E-score” value is -0.084.

For GCGCGAGA, the “PBM E-score” value is -0.21.

With CGTCAAGA, the “PBM E-score” value was 0.057.

With TAGACCTA, the “PBM E-score” value is -0.0264.

With CGTAAACC, the “PBM E-score” value was found to be 0.0691.

With ATGGGGTC, the “PBM E-score” value was -0.133.

For the sequence TGAGGTAA, the “PBM E-score” value stood at 0.0813.

As for CTAGGTGA, the “PBM E-score” value was -0.153.

Regarding CAGTGCAG, the “PBM E-score” value is -0.113.

As to ACGCACGC, the “PBM E-score” value is 0.258.

On to CGTAGCCA, for which the “PBM E-score” value is -0.208.

Regarding ACTGAAGG, the “PBM E-score” value was found to be 0.259.

Turning to AAACCTGA, the “PBM E-score” value was -0.172.

For the sequence GCGCTTGA, the “PBM E-score” value was -0.0372.

For the sequence ATGTACAT, the “PBM E-score” value was determined as 0.378.

AGCCGTCA: the “PBM E-score” value was -0.239.

For the origin of these results see the supplement of paper PMC3334620.
